# Reference: PubChem BioAssay AID504832 (National Center for Advancing Translational Sciences (NCATS), 2011)
# Among all 310,000 compounds or so, about 18,000 (5.8%) were called active. The inconclusive results got no clear call from the source; some entries with a clear call stand among them for comparison. Calls come from the whole dose curve; as a rule, active = well fitted inhibition curve with a large enough effect; inconclusive = small, poorly fitted or top-dose-only effect, or another doubt; inactive = no such curve, though single readings can be large or run the other way. No potency is given beside an inconclusive call; the fits are too rough.
# Test: Primary qHTS for delayed death inhibitors of the malarial parasite plastid, 48 hour incubation
# Conditions: P. falciparum luciferase growth in erythrocytes; series mostly up to 28.7 µM; activity change, negative = inhibition: at the top concentration
# Procedure, shortened: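 In quantitative HTS format, infected erythrocytes bearing luciferase-reporter parasites were treated for a single generation at 37 C. Luminescence after adding detection reagent served as the growth measure.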
# % is set by controls: 0 for no effect and ±100 for the full control effect; potency is the fitted concentration of half-maximal effect; tags give direction and shape of the fitted curve.
Structure (SMILES),Potency,"activity change, negative = inhibition"
Cc1ccc(OCCCC(=O)N2CCN(S(=O)(=O)c3cccc(F)c3)CC2)cc1,"inconclusive [inhibitor, full curve, poor fit]",
O=C(CSc1nnc(NC(=O)c2c(F)cccc2F)s1)NC1CCCCC1,,inactive: -10.1%
O=C(O)CCc1nc(-c2ccccc2Cl)no1,"inconclusive [inhibitor, partial curve, poor fit]",
CCOC(=O)CSc1nc2ccccc2n2c(C)nnc12,,inactive: -12.9%
COc1ccccc1/C=C/C1C(C(=O)OCC(C)C)=C(C)N=C2SCCC(=O)N21 (stereo unspecified),"inconclusive [inhibitor, single point]",
COc1ccc2cc3cc(C(=O)NC4CC4)sc3nc2c1,,inactive: 21%
COCCCn1c(SCC(=O)N2CCCC(C)C2)nnc1-c1ccco1 (stereo unspecified),,inactive: -5.42%
CCOc1cc(-c2sc(Nc3ccccc3)n[n+]2-c2ccc(F)cc2)ccc1OC,,inactive: 34.8%
CC(=O)N(CCC(c1ccco1)C(C)C)Cc1ccc(Cl)cc1 (stereo unspecified),"inconclusive [inhibitor, partial curve]",
O=C(Nc1ccccc1N1CCN(C(=O)c2ccc(Cl)cc2)CC1)c1ccc([N+](=O)[O-])o1,active: 6.57 µM,
Cn1c(=O)c2ncn(CC(=O)Nc3cccc(-c4nc5ccccc5s4)c3)c2n(C)c1=O,,inactive: 171%
COc1ccccc1CC(=O)Nc1sc2c(c1C(N)=O)CCCC2,"inconclusive [inhibitor, partial curve, poor fit]",
Cc1cc(C(=O)CSc2nnc(-c3cccs3)n2Cc2ccccc2)c(C)n1C,"inconclusive [inhibitor, single point]",
COc1ccc2cc(C(c3nnnn3CCc3ccccc3)N3CCCC(C)C3)c(=O)[nH]c2c1 (stereo unspecified),"inconclusive [inhibitor, single point]",
C/C(=C\c1ccccc1)C(=O)Nc1cc(C)on1,"inconclusive [inhibitor, single point]",
COc1cc2c(cc1OC)CN(c1nc(CN3CCCC3)nc3sc(C)c(C)c13)CC2,"inconclusive [inhibitor, single point]",
CC(=O)NC12CC3CC(C1)CC(C(=O)N1CCN(S(=O)(=O)c4ccc(Cl)s4)CC1)(C3)C2,"inconclusive [inhibitor, partial curve]",
COc1ccc(S(=O)(=O)Nc2cc(SCC(=O)O)c(O)c3ccccc23)cc1,active: 4.15 µM,
C(#Cc1ccccc1)C[N+]1(CC#Cc2ccccc2)CCCCC1,,inactive: -13.7%
CC(=O)c1ccc(OCc2cc(C(=O)N3CCC(c4ccncc4)CC3)no2)cc1,,inactive: 2.81%
Cc1[nH]c2ccccc2c1CCCO,,inactive: -3.75%
CCCC(=O)c1ccc(N2CCCCC2)c(F)c1,,inactive: 37.9%
NC(=O)C1CC(=O)N(c2ccc(OCC(=O)Nc3ccc(F)cc3)cc2)C1 (stereo unspecified),,inactive: 3.86%

Structure (SMILES),Potency,"activity change, negative = inhibition"
COc1cc(C2C(C(=O)c3cccs3)=C(O)C(=O)N2Cc2ccco2)cc(OC)c1OC (stereo unspecified),"inconclusive [inhibitor, single point]",
O=C(NCC(=O)N1CCN(C/C=C/c2ccccc2)CC1)c1ccc(OC(F)F)cc1,"inconclusive [inhibitor, single point]",
COc1ccc(CN2C(=O)NC(=O)/C(=C\c3ccco3)C2=O)cc1,"inconclusive [inhibitor, single point]",
Cc1ccc(C(=O)CC(=O)c2ccccc2C)c(O)c1,"inconclusive [inhibitor, full curve]",
Cn1c(SCc2ccccc2)nnc1-c1ccc2nonc2c1,,inactive: 8.54%
CCn1c(=O)n(CC)c2cc(S(=O)(=O)Nc3ccccc3C)c(C)cc21,"inconclusive [inhibitor, partial curve]",
Fc1ccc(-c2nc3c(Cl)cc(C(F)(F)F)cn3c2Cl)cc1,,inactive: 72.8%
CC1(C)CC(=O)C(N=Nc2cc(C(F)(F)F)ccc2Cl)=C(O)C1,,inactive: 7.4%
O=C(O)C1CCC(=O)N(C2CC2)C1c1ccccc1 (stereo unspecified),"inconclusive [inhibitor, full curve, poor fit]",
Cc1nc(C(C)N(C)Cc2c(C(=O)N3CCCCC3)nc3c(C)cccn23)c(C)s1 (stereo unspecified),"inconclusive [inhibitor, partial curve, poor fit]",
O=C(NC1CCCCC1)C(c1cccnc1)N(CCc1ccccc1)C(=O)Cc1cccs1 (stereo unspecified),active: 13.1 µM,
COc1ccc(-n2ncc3c2CC(C)(C)CC3NC(=O)C2=CC(=O)CC(C)(C)O2)cc1 (stereo unspecified),"inconclusive [inhibitor, partial curve]",
O=C(Nc1ccc(N2CCN(C(=O)c3ccco3)CC2)cc1)c1ccccc1,"inconclusive [inhibitor, partial curve]",
O=C1C2C3CCC(C3NCc3ccccc3)C2C(=O)N1Cc1ccccc1 (stereo unspecified),"inconclusive [inhibitor, partial curve, poor fit]",
Cn1c(=O)c2c(nc(CN3CCN(C(=O)c4ccco4)CC3)n2Cc2cccc(Cl)c2)n(C)c1=O,active: 4.65 µM,
COc1cccc(CC2(CO)CCCN(Cc3nc(-c4cccs4)oc3C)C2)c1 (stereo unspecified),"inconclusive [inhibitor, single point]",
COc1ccc(/C=N/OCC(=O)Nc2cc(C)on2)cc1OC,,inactive: 6.71%
COc1cccc(CNC(=O)c2ccc(Cl)c(S(=O)(=O)N3CCOCC3)c2)c1,active: 8.28 µM,
O=C(CSc1nnc(C2CC2)n1C1CC1)c1cc(F)ccc1F,"inconclusive [inhibitor, single point]",
COCCn1c(SCC(=O)c2[nH]c(C)c(C(C)=O)c2C)nc2ccccc2c1=O,"inconclusive [inhibitor, partial curve]",
COC(=O)C1=C(C)NC(=S)NC1c1sccc1C (stereo unspecified),,inactive: 20.7%
O=C(N/N=C/c1cc([N+](=O)[O-])ccc1O)C(O)(c1ccccc1)c1ccccc1,"inconclusive [inhibitor, single point]",
COc1ccccc1CNC(=O)c1cn(C)c2ccc(S(=O)(=O)N3CCCC3)cc2c1=O,"inconclusive [inhibitor, partial curve]",
